Results as given in ChEMBL document CHEMBL5308541, “MAIP: An Open-Source Tool to Enrich High-Throughput Screening Output and Identify Novel, Druglike Molecules with Antimalarial Activity” (ACS Med Chem Lett, 2023).
Screen size: about 150,000 compounds; about 540 (0.36%) showed an effect of 50% or more. The list shows a part of the results.

These compounds were tested on Plasmodium falciparum (assay: Primary screen in NF54 nanoGlo assay, in single point, at 2uM, 72h; a lower Z score goes with more inhibition). Conditions: timepoint 72 hour.
Type: functional, Erythrocyte

Structure (SMILES) | % Inhibition | Z score
O=C(CN1CCN(C2CCNCC2)C[C@@H](O)C1)NCc1ccccc1 | -4% | 0.74
FC(F)(F)c1cccnc1N1CCN(C2CCN(CCOc3ccccc3)CC2)CC1 | -2% | 0.29
CCCc1noc(CN(C)Cc2[nH]cc(C)c(=O)c2C)n1 | -4% | 0.78
CCCc1nc(NCC2CCN(Cc3ccc(C)o3)CC2)c2cnn(C)c2n1 | 4% | -0.68
CC(C)[C@@H]1N(C(=O)C2CCN(c3ncccn3)CC2)CC12CCC2 | -13% | 1.95
Cc1cccc2nc(NCc3ccncc3O[C@H]3CCNC3)oc12 | 5% | -0.92
N#Cc1cccc(Nc2nc(N3CCN(c4ccccc4)CC3)nc3[nH]cnc23)c1 | 4% | -0.69
CC(NC(=O)NC1CCCCNC1=O)c1cc2ccccc2o1 (stereo unspecified) | 0% | -0.03
NC1CC(c2cc(NC3CCN(Cc4ccncc4)CC3)ncn2)C1 (stereo unspecified) | -10% | 1.76
Cc1nc2ccc(C(=O)N[C@@H](C)c3nncn3C(C)C)cc2o1 | -7% | 1.36
OCC[C@H]1CN(c2ncc(F)c(N3CCOCC3)n2)CCN1C1CCCC1 | -3% | 0.58
CC[C@H](NC(=O)c1ccc2nc(C)sc2c1)c1nc(C)c[nH]1 | -13% | 2.18
FC(F)CN(Cc1ccc(CN2CCOCC2)cc1)C1CC1 | -5% | 1.18
Cc1ccc2[nH]nc(C(=O)N(CC3CCN(C4CCCC4)CC3)C[C@H]3CCCO3)c2c1 | 6% | -1.1
CNC(=O)c1cc(Oc2cccc(NC3CCN([C@H]4CCOC4)CC3)c2)ccn1 | 2% | -0.23
COc1ccc(-n2nc(C)c3c(O)cc(-c4ccccc4OC)nc32)cc1 | -3% | 0.52
COc1ccc(Nc2cc(N3CCC4OCC(=O)NC4C3)ncn2)c(OC)c1 (stereo unspecified) | -1% | 0.16
CC(=O)N1CCN(c2ccc(CNc3cnc4cc(Cl)c(Cl)cc4n3)cc2)CC1 | 2% | -0.34
CN(C[C@H](O)COc1ccccc1CN1CCC(c2ccncc2)CC1)C1CCCCC1 | 41% | -8.15
O=C(NC1CCCCNC1)N1CCC2(CCCNC2)C1 (stereo unspecified) | 0% | -0.01
O=S1(=O)CCC(CN2CCC[C@H](c3c[nH]c4ncccc34)C2)CC1 | -11% | 1.6

Structure (SMILES) | % Inhibition | Z score
C[C@@H](c1ccc(-c2nccc(N3CCC(O)CC3)n2)cc1)N1CCCCC1 | 5% | -1.12
CC(C)[C@H]1C=CCN1C(=O)c1cccc(-c2ccc(NC3CCCC3)nn2)c1 | -9% | 1.97
COc1ccc(OC)c2nc(N3CCOCC3)c(CN(C[C@H]3COc4ccccc4O3)C(C)=O)cc12 | 5% | -0.87
CCCn1ncc(C(=O)NCCc2c(C)[nH]c3ccc(C#N)cc23)c1C | -6% | 1.15
C[C@@H](c1cccc(-c2cc(N3CCOCC3)nc(N)n2)c1)N1CCCC1 | -1% | 0.25
Cn1nccc1NC(=O)Cn1cc(-c2csc(CN3CCNCC3)c2)cn1 | -8% | 1.37
Fc1ccc(Cn2c3ccccc3c3nnc(NCCc4c[nH]c5ccccc45)nc32)cc1 | -12% | 2.07
Cc1n[nH]c(C)c1CNC(=O)Nc1ccc2c(c1)OCC(=O)N2C | 3% | -0.56
CC(=O)c1cnc(NC2CC(C)(C)NC(C)(C)C2)nc1C | 18% | -3.18
Oc1ccc(-c2ccccc2OC[C@@H](O)CN2CCCCC2)cc1OC(F)(F)F | 14% | -2.41
Cc1nc(Nc2cnn(CC(F)(F)F)c2)cc(-c2cccnc2)n1 | 2% | -0.38
O[C@H](CN1CCOCC1)CN1CCC(Nc2ccccc2F)CC1 | -1% | 0.2
C1CC2(CCN1)COC(CN1CC3CCNCC3C1)C2 (stereo unspecified) | -1% | 0.08
O=C([C@H]1CCCN(Cc2coc3ccccc23)C1)N1CCOCC1 | -2% | 0.47
CC(C)N1CCN(CCCN2CC3(CCN(C(=O)[C@@H]4CCCN4)CC3)OC2=O)CC1 | -11% | 2
COc1ccccc1-c1ncc(CN(C)C2CCOCC2)cn1 | -9% | 1.84
c1nc(N2CCCC2)cc(N2CCC(Nc3nccs3)CC2)n1 | -12% | 2.1
O=C(c1cn(CCN2CCNCC2)nn1)N1CCC(c2ccncc2)CC1 | 1% | -0.21
COc1ccc(Nc2nc(N(C)CCC(C)O)cc(N(C)CCC(C)O)n2)cc1 (stereo unspecified) | 10% | -1.76
O=C(c1nc(=O)[nH]c2ccccc12)N1CCc2c([nH]c3ccccc23)[C@@H]1C1CCCCC1 | -7% | 1.13
Brc1cncc([C@@H](Nc2ncnc3[nH]ccc23)C2CC2)c1 | 3% | -0.58

Structure (SMILES) | % Inhibition | Z score
Cc1cccc(C)c1OCCCn1nnnc1C1(O)CCOCC1 | -7% | 1.58
O=C(NC1CCN(Cc2ccncc2)CC1)c1ccc(-c2ccccc2)[nH]1 | -7% | 1.46
CN(C)c1nc(NC2CCN(Cc3ccccc3Cl)CC2)ncc1F | -1% | 0.23
OC[C@H]1CCCCN1CCNc1cnc2ccccc2n1 | 8% | -1.44
c1ccc(Oc2ccccc2-c2cnc3nn[nH]c3c2)cc1 | -3% | 0.51
Nc1cccc(OCC2CCOCC2)c1 | 3% | -0.69
c1cc(CO[C@H]2CCOC2)cc(-c2ccc3nccn3c2)c1 | -1% | 0.13
CCn1cc(-c2cccc(C(=O)N3CCN(C4CCCCC4)CC3)c2)cn1 | -10% | 1.9
Cc1nc(C#N)c(N2CCC(C(=O)Nc3nc4ccccc4[nH]3)CC2)o1 | -14% | 2.38
CC(C)c1ccc([C@@H]2CCCCN2c2cc(-n3ccnc3)ncn2)cc1 | -5% | 0.95
CCCN1C(=O)C2CCC1CN(Cc1cnn(-c3ccccc3)c1)C2 (stereo unspecified) | -2% | 0.32
CC(C1CCCN(C(=O)OC(C)(C)C)C1)N1CCN(CC(=O)N2CCCCCC2)CC1 (stereo unspecified) | 2% | -0.42
Cc1cc(OCC(N)=O)ccc1N[C@H]1CCN(c2ccccc2)C1=O | -2% | 0.44
CN[C@H]1CCN(c2cc(NC3(C)CC3)nc(N)n2)C1 | 7% | -1.06
Cc1ccccc1COc1cccc2[nH]c(C(=O)N3CCC(N4CCCCC4)CC3)cc12 | 0% | 0.01
c1ccc2c3c([nH]c2c1)CN(c1ncnc2[nH]ccc12)CC3 | -5% | 0.97
c1cc2cc(CN3CCCC[C@@H]3CN3CCOCC3)ccc2[nH]1 | 3% | -0.62
CCN(CC1CCN(C2CCN(C)CC2)CC1)C(=O)[C@@H]1CCCCN1CC | 5% | -0.83
CN(C)C(=O)c1ccc(CNc2nc3ccccc3n2CCCc2ccccc2)[nH]1 | -9% | 1.47
Cc1ccc(C(=O)Nc2cnn(-c3ccc(C(=O)N4CC[C@H](c5ccc(F)cc5)C4)cc3)c2)c(C)c1 | -8% | 1.56
Clc1ccc2nc(CN(Cc3cccnc3)CC3CCN(C4CCCC4)CC3)ccc2c1 | -7% | 1.18

Structure (SMILES) | % Inhibition | Z score
Cn1cc(CN[C@H]2CCN(c3ccccn3)C2)c(-c2ccncc2)n1 | 4% | -0.68
CN1CCC(N(Cc2ccccc2)C(=O)c2cc3cnccc3[nH]2)CC1 | 52% | -7.83
c1cnc2[nH]cc(C3CCN(c4ncnc5nc[nH]c45)CC3)c2c1 | -1% | 0.14
CC(C(=O)NCc1ccc(CN2CCOCC2)cc1)N1CCC(CNc2ccccn2)C1 (stereo unspecified) | 5% | -0.72
CC1(C)CC(NCc2cccc3cn[nH]c23)CC(C)(C)N1 | 3% | -0.7
CC(C)C(NC1CCOCC1)C(=O)NC1CCN(C2CCCC2)C1 (stereo unspecified) | 0% | -0.07
CCC(C)C(NC(=O)c1csc(-c2ccsc2)n1)C(=O)NCCN1CCOCC1 (stereo unspecified) | -4% | 0.82
O[C@@H]1C[C@H]2CN(c3cccc(-n4cnc5ccccc54)n3)CCN2C1 | -6% | 0.99
CC(C)CC(C)OC(=O)N1CC2(CC(O)CNC2=O)C1 (stereo unspecified) | 5% | -1
O=C(N[C@H]1C[C@H](CO)C1)c1cc(-c2c[nH]c3ccccc23)[nH]n1 | -2% | 0.48
Cc1cc(F)ccc1N1CCC(NC[C@H](O)c2cccc(O)c2)CC1 | -6% | 1.1
COC(=O)N1CCC2(CCC(N3CCN(c4ccncc4)CC3)CC2)CC1 | 8% | -1.76
CN1CCC2CCC(C1)N2C(=O)c1cccc(-c2cc(NCCO)ncn2)c1 (stereo unspecified) | 0% | 0.07
N#Cc1ncccc1S(=O)(=O)N1CCN(Cc2ccccc2)C2(CCCCC2)C1 | -15% | 2.56
Nc1cccc(-c2ccc3nncn3n2)c1 | -5% | 0.7
CCn1nccc1C=Cc1nc2ccc(C(=O)O)cc2o1 | -4% | 0.8
CCc1nn(C)c2[nH]nc(NC(=O)c3[nH]nc4c3CCCC4)c12 | -6% | 1.22
c1cn(CCCN2CCCN(C3CCCC3)CC2)cn1 | -6% | 1.04
CN1CCC(CNc2ncnc3c2CCNCC3)(c2ccccc2)CC1 | 2% | -0.36
COc1ccc(C(O)CNC2CCc3ccc(F)cc32)cc1 (stereo unspecified) | 0% | 0.04
